Changes are numbered by the printed parent chain; changes in the protein carry UniProt numbers. The list shows a part of the results.

The labels stand for the following.
T1: RBFOX1 RRM (Homo sapiens, UniProt Q9NWB1 109-208)
T1 sequence: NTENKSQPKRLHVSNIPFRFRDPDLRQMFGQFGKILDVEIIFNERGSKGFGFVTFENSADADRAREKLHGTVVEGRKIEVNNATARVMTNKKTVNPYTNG

B1: GCCGAUU (DNA:RNA)
RNA: GGGAGACCGGAAUUCAGAUUGUCCGCCGAUUUUAAAUCCCGUCGUAGCCACCA
DNA 1: CAATCTGAATTCCGGTCTCCC
DNA 2: TGGTGGCTACGACGGGATT
B2: GUCCGAG (DNA:RNA)
RNA: B1 RNA with C26U, G28C, A29G, U30A, U31G
DNA 1: CAATCTGAATTCCGGTCTCCC
DNA 2: TGGTGGCTACGACGGGATT
B3: GAUUCAA (DNA:RNA)
RNA: B1 RNA with C26A, C27U, G28U, A29C, U30A, U31A
DNA 1: CAATCTGAATTCCGGTCTCCC
DNA 2: TGGTGGCTACGACGGGATT
B4: GGGGGAU (DNA:RNA)
RNA: B1 RNA with C26G, C27G, A29G, U30A
DNA 1: CAATCTGAATTCCGGTCTCCC
DNA 2: TGGTGGCTACGACGGGATT
B5: UAAGUCG (DNA:RNA)
RNA: B1 RNA with G25U, C26A, C27A, A29U, U30C, U31G
DNA 1: CAATCTGAATTCCGGTCTCCC
DNA 2: TGGTGGCTACGACGGGATT
B6: CUGUUCC (DNA:RNA)
RNA: GGGAGACCGGAAUUCAGAUUGUCCCUGUUCCUUAAAUCCCGUCGUAGCCACCA
DNA 1: CAATCTGAATTCCGGTCTCCC
DNA 2: TGGTGGCTACGACGGGATT
B7: ACGUGCG (DNA:RNA)
RNA: B6 RNA with C25A, U26C, U29G, C31G
DNA 1: CAATCTGAATTCCGGTCTCCC
DNA 2: TGGTGGCTACGACGGGATT
B8: CUCGUUA (DNA:RNA)
RNA: B6 RNA with G27C, U28G, C30U, C31A
DNA 1: CAATCTGAATTCCGGTCTCCC
DNA 2: TGGTGGCTACGACGGGATT
B9: CACGUUG (DNA:RNA)
RNA: B1 RNA with G25C, C26A, A29U, U31G
DNA 1: CAATCTGAATTCCGGTCTCCC
DNA 2: TGGTGGCTACGACGGGATT
B10: UACGUAG (DNA:RNA)
RNA: B1 RNA with G25U, C26A, A29U, U30A, U31G
DNA 1: CAATCTGAATTCCGGTCTCCC
DNA 2: TGGTGGCTACGACGGGATT
B11: CAGUUCA (DNA:RNA)
RNA: B6 RNA with U26A, C31A
DNA 1: CAATCTGAATTCCGGTCTCCC
DNA 2: TGGTGGCTACGACGGGATT
B12: GGCUCGG (DNA:RNA)
RNA: B1 RNA with C26G, G28U, A29C, U30G, U31G
DNA 1: CAATCTGAATTCCGGTCTCCC
DNA 2: TGGTGGCTACGACGGGATT
B13: CGGAUAG (DNA:RNA)
RNA: B6 RNA with U26G, U28A, C30A, C31G
DNA 1: CAATCTGAATTCCGGTCTCCC
DNA 2: TGGTGGCTACGACGGGATT
B14: CUCGUGA (DNA:RNA)
RNA: B6 RNA with G27C, U28G, C30G, C31A
DNA 1: CAATCTGAATTCCGGTCTCCC
DNA 2: TGGTGGCTACGACGGGATT
B15: UAGACUU (DNA:RNA)
RNA: B1 RNA with G25U, C26A, C27G, G28A, A29C
DNA 1: CAATCTGAATTCCGGTCTCCC
DNA 2: TGGTGGCTACGACGGGATT
B16: GCACUGG (DNA:RNA)
RNA: B1 RNA with C27A, G28C, A29U, U30G, U31G
DNA 1: CAATCTGAATTCCGGTCTCCC
DNA 2: TGGTGGCTACGACGGGATT
B17: GCGAAUC (DNA:RNA)
RNA: B1 RNA with C27G, G28A, U31C
DNA 1: CAATCTGAATTCCGGTCTCCC
DNA 2: TGGTGGCTACGACGGGATT
B18: UGCCCAA (DNA:RNA)
RNA: B1 RNA with G25U, C26G, G28C, A29C, U30A, U31A
DNA 1: CAATCTGAATTCCGGTCTCCC
DNA 2: TGGTGGCTACGACGGGATT
B19: UCUGUGA (DNA:RNA)
RNA: B1 RNA with G25U, C27U, A29U, U30G, U31A
DNA 1: CAATCTGAATTCCGGTCTCCC
DNA 2: TGGTGGCTACGACGGGATT
B20: AGACGGG (DNA:RNA)
RNA: GGGAGACCGGAAUUCAGAUUGUCCAGACGGGUUAAAUCCCGUCGUAGCCACCA
DNA 1: CAATCTGAATTCCGGTCTCCC
DNA 2: TGGTGGCTACGACGGGATT
B21: CCCUUCG (DNA:RNA)
RNA: B6 RNA with U26C, G27C, C31G
DNA 1: CAATCTGAATTCCGGTCTCCC
DNA 2: TGGTGGCTACGACGGGATT
B22: UGUAUAG (DNA:RNA)
RNA: B20 RNA with A25U, A27U, C28A, G29U, G30A
DNA 1: CAATCTGAATTCCGGTCTCCC
DNA 2: TGGTGGCTACGACGGGATT
B23: AGGGGUU (DNA:RNA)
RNA: B20 RNA with A27G, C28G, G30U, G31U
DNA 1: CAATCTGAATTCCGGTCTCCC
DNA 2: TGGTGGCTACGACGGGATT
B24: UACACAG (DNA:RNA)
RNA: B20 RNA with A25U, G26A, A27C, C28A, G29C, G30A
DNA 1: CAATCTGAATTCCGGTCTCCC
DNA 2: TGGTGGCTACGACGGGATT
B25: ACUCCUG (DNA:RNA)
RNA: B20 RNA with G26C, A27U, G29C, G30U
DNA 1: CAATCTGAATTCCGGTCTCCC
DNA 2: TGGTGGCTACGACGGGATT
B26: CGCUAUU (DNA:RNA)
RNA: B1 RNA with G25C, C26G, G28U
DNA 1: CAATCTGAATTCCGGTCTCCC
DNA 2: TGGTGGCTACGACGGGATT
B27: UGGAGGU (DNA:RNA)
RNA: B20 RNA with A25U, A27G, C28A, G31U
DNA 1: CAATCTGAATTCCGGTCTCCC
DNA 2: TGGTGGCTACGACGGGATT
B28: ACUACAG (DNA:RNA)
RNA: B20 RNA with G26C, A27U, C28A, G29C, G30A
DNA 1: CAATCTGAATTCCGGTCTCCC
DNA 2: TGGTGGCTACGACGGGATT
B29: GGCUUUU (DNA:RNA)
RNA: B1 RNA with C26G, G28U, A29U
DNA 1: CAATCTGAATTCCGGTCTCCC
DNA 2: TGGTGGCTACGACGGGATT
B30: CAUUUAC (DNA:RNA)
RNA: B6 RNA with U26A, G27U, C30A
DNA 1: CAATCTGAATTCCGGTCTCCC
DNA 2: TGGTGGCTACGACGGGATT
B31: GCAAUCG (DNA:RNA)
RNA: B20 RNA with A25G, G26C, C28A, G29U, G30C
DNA 1: CAATCTGAATTCCGGTCTCCC
DNA 2: TGGTGGCTACGACGGGATT

In this experiment the target is T1, RBFOX1 RRM. In words: EMSA; HiTS-Eq, 1 nM pool, 10 min; buffer printed only for the single-RNA assays: 10 mM Tris pH 7.5, 150 mM NaCl, 3.4 mM EDTA, 0.001% NP-40, 30 C. The note with it: tags: His6 N-terminal (pET28a); label: 5' 32P. The essentials: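 Purified RbFox RRM (wild type or mutant) was equilibrated for 10 min in 50 µL with 1 nM of a 5′-radiolabelled pool of RNA with 7 randomized nucleotides, its flanks annealed to DNA oligonucleotides, across increasing protein concentrations. Free RNA was separated by 8% native PAGE, excised, reverse-transcribed, PCR-barcoded and sequenced on an Illumina HiSeq 2500. Relative association constants came from read-count changes of each variant against the control reaction, normalised to the cognate motif.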
A general note: Mobility shift assays separate free from complexed probe on a gel.
Take B1: the binding signal was 0.0145 KA relative to UGCAUGU. As for B2, the binding signal was 0.0163 KA relative to UGCAUGU.

As for B3, the binding signal was 0.0073 KA relative to UGCAUGU. Take B4: the binding signal was 0.0252 KA relative to UGCAUGU. Regarding B5, the binding signal was 0.00936 KA relative to UGCAUGU. For B6, the binding signal is 0.014 KA relative to UGCAUGU. Take B7: the binding signal is 0.0166 KA relative to UGCAUGU. Regarding B8, the binding signal is 0.00479 KA relative to UGCAUGU. B9: the binding signal was 0.0122 KA relative to UGCAUGU. For the molecule B10, the binding signal was 0.0159 KA relative to UGCAUGU. On to B11, for which the binding signal is 0.00458 KA relative to UGCAUGU. As for B12, the binding signal was 0.0101 KA relative to UGCAUGU. For the molecule B13, the binding signal is 0.0228 KA relative to UGCAUGU. With B14, the binding signal is 0.00777 KA relative to UGCAUGU. For B15, the binding signal is 0.00623 KA relative to UGCAUGU. For B16, the binding signal was 0.0189 KA relative to UGCAUGU.

On to B17, for which the binding signal was 0.0124 KA relative to UGCAUGU. With B18 the figure was 0.0128 KA relative to UGCAUGU. As for B19, the binding signal was 0.0143 KA relative to UGCAUGU. Turning to B20, the binding signal was 0.00285 KA relative to UGCAUGU. B21: the binding signal was 0.00212 KA relative to UGCAUGU.

Consider B22, for which the binding signal was 0.0148 KA relative to UGCAUGU. The figure for B23 is 0.0261 KA relative to UGCAUGU. For B24, the binding signal was 0.00791 KA relative to UGCAUGU. With B25, the binding signal is 0.00677 KA relative to UGCAUGU. The figure for B26 is 0.00582 KA relative to UGCAUGU; for B27 it is 0.024 KA relative to UGCAUGU; for B28 it is 0.00303 KA relative to UGCAUGU. For the molecule B29, the binding signal was 0.0115 KA relative to UGCAUGU.

As to B30, the binding signal is 0.00178 KA relative to UGCAUGU. As for B31, the binding signal is 0.0112 KA relative to UGCAUGU.

For the origin of these results see publication PMC9911399, “Two distinct binding modes provide the RNA-binding protein RbFox with extraordinary sequence specificity”.
